According to the supplement of paper PMC10126150:
Sequences with one replicate were seen in a single cluster, so their values are uncertain.

System: ATP
Assay: switch fluorescence ratio, 500 uM ATP over buffer (Cy3 cluster intensity, sum of 5 cycles each) (fold (ratio)); higher = stronger signal-on switching upon ATP binding; sequences stand for … in TCGTCGGCAGCGTCAGATGTGTATAAGAGACAGTTTTTTTTTTTTTTTTTTTTTTTTT…TC
Details: aptamer strand: ATP DNA aptamer (quencher-CACCTGGGGGAGTATTGCGGAGGAAGG + anchor), 100 nM annealed; ATP concentration: 500 uM; one replicate
Procedure, shortened: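 Exposure to 500 uM ATP lasted 15 min at 22 °C before imaging, and a selection-buffer image was taken beforehand, for Cy3-labelled switching-strand clusters on a modified Illumina MiSeq flow-cell annealed to 100 nM quencher-labelled ATP aptamer. Five buffer/ATP cycles were run with NaOH stripping and re-annealing between them. The fluorescence ratio per cluster is summed target-cycle over summed buffer-cycle Cy3 intensity, averaged per switch-domain sequence. Clusters outside 100-1000 RFU were excluded.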

Sequence: ATTGAAGTCC
- switch fluorescence ratio: 1.02

Sequence: GCGGGGAGTA
- switch fluorescence ratio: 1.04

Sequence: GGGCCAGTAC
- switch fluorescence ratio: 1.17

Sequence: AACATGAATC
- switch fluorescence ratio: 0.964

Sequence: TCGGATTG
- switch fluorescence ratio: 0.962

Sequence: ATCGCGGCGA
- switch fluorescence ratio: 1

Sequence: CAGCAAAATA
- switch fluorescence ratio: 1.11

Sequence: TAGGAATGAC
- switch fluorescence ratio: 1.02

Sequence: CTACCGGTCA
- switch fluorescence ratio: 0.998

Sequence: GGTGGCCTGA
- switch fluorescence ratio: 0.951

Sequence: ATCATGCCGA
- switch fluorescence ratio: 1.02

Sequence: GTAGAGTCTG
- switch fluorescence ratio: 0.997

Sequence: AGCGAATGGC
- switch fluorescence ratio: 1.11

Sequence: CCTCGTTTCA
- switch fluorescence ratio: 1.01

Sequence: GATGCTTTGC
- switch fluorescence ratio: 1.07

Sequence: CACGGTATTG
- switch fluorescence ratio: 1.15

Sequence: GATTATAATG
- switch fluorescence ratio: 1

Sequence: TTTACCGTT
- switch fluorescence ratio: 0.937

Sequence: TGAGTTGATA
- switch fluorescence ratio: 0.98

Sequence: GTGGCCGGGC
- switch fluorescence ratio: 1

Sequence: GAGACAGAGG
- switch fluorescence ratio: 0.982

Sequence: CTTGTCCATT
- switch fluorescence ratio: 1.01

Sequence: CGAGAGTCGC
- switch fluorescence ratio: 0.983

Sequence: TTTGGGCTTA
- switch fluorescence ratio: 1.16

Sequence: AGCATGTAT
- switch fluorescence ratio: 1.02

Sequence: CAAATTCCGG
- switch fluorescence ratio: 0.978

Sequence: TGCCAATAGC
- switch fluorescence ratio: 1.05

Sequence: GGATACTTTG
- switch fluorescence ratio: 0.995

Sequence: AAAACTGCTT
- switch fluorescence ratio: 1.07

Sequence: GGGGTTACCA
- switch fluorescence ratio: 1.01

Sequence: GCATATAGT
- switch fluorescence ratio: 1.08

Sequence: CCTAGAGCAT
- switch fluorescence ratio: 2.1

Sequence: TCTTTTGGG
- switch fluorescence ratio: 0.966

Sequence: GCCCACCTCG
- switch fluorescence ratio: 1.03

Sequence: TGAGAATTCG
- switch fluorescence ratio: 0.989

Sequence: GGGTTTCGC
- switch fluorescence ratio: 1.06

Sequence: TATCTCAAGC
- switch fluorescence ratio: 1.02

Sequence: TTCCGCCGTT
- switch fluorescence ratio: 1.18

Sequence: CTTACGTAA
- switch fluorescence ratio: 1.86

Sequence: CACGAGGGAC
- switch fluorescence ratio: 0.966

Sequence: AGGTTAAATC
- switch fluorescence ratio: 0.992

Sequence: GATGATATT
- switch fluorescence ratio: 0.99

Sequence: CTTTGTTTAC
- switch fluorescence ratio: 1.06

Sequence: TTGGAGGTGC
- switch fluorescence ratio: 1.4

Sequence: ACGATCACGT
- switch fluorescence ratio: 1.12

Sequence: AGCTCGATA
- switch fluorescence ratio: 1.01

Sequence: GATGGCGCAA
- switch fluorescence ratio: 1.29

Sequence: CAACGTGCAT
- switch fluorescence ratio: 1.03

Sequence: AGATGATAAC
- switch fluorescence ratio: 1.01

Sequence: AGTAGGGACC
- switch fluorescence ratio: 0.966

Sequence: AGGTAATCGT
- switch fluorescence ratio: 0.983

Sequence: TGGTGCAATA
- switch fluorescence ratio: 2.19

Sequence: AGTTGGAATA
- switch fluorescence ratio: 1

Sequence: GCAGTTCGTC
- switch fluorescence ratio: 1

Sequence: CTTGAGCGG
- switch fluorescence ratio: 0.971

Sequence: ATTACTTAA
- switch fluorescence ratio: 1.01

Sequence: GGCAATATAT
- switch fluorescence ratio: 1.06

Sequence: CTAACGCACA
- switch fluorescence ratio: 1.4

Sequence: GGCTGCAGTA
- switch fluorescence ratio: 1.01

Sequence: TAGCGCATTG
- switch fluorescence ratio: 1.09

Sequence: AAGACCGACG
- switch fluorescence ratio: 1.19

Sequence: AAAATCCTCC
- switch fluorescence ratio: 1.68

Sequence: CTGTGCTTTT
- switch fluorescence ratio: 0.997

Sequence: GGTTCACGTA
- switch fluorescence ratio: 0.969

Sequence: CAGTCTCCTA
- switch fluorescence ratio: 1.02

Sequence: TCACCGATTA
- switch fluorescence ratio: 1.08

Sequence: ACAGATATTA
- switch fluorescence ratio: 0.999

Sequence: TTGTTATATG
- switch fluorescence ratio: 1.01

Sequence: CAGGATAATG
- switch fluorescence ratio: 0.986

Sequence: CCTATTTGGA
- switch fluorescence ratio: 1.01

Sequence: CCAGGACGTG
- switch fluorescence ratio: 1.03

Sequence: GTGGGGGGAC
- switch fluorescence ratio: 0.988

Sequence: CATACCACGT
- switch fluorescence ratio: 1.03

Sequence: GCATAGTAAT
- switch fluorescence ratio: 1.08

Sequence: TGTTGACGTG
- switch fluorescence ratio: 0.989

Sequence: CATGGGACTC
- switch fluorescence ratio: 1.03

Sequence: GATATGTCGT
- switch fluorescence ratio: 0.976

Sequence: ACTCCTACTT
- switch fluorescence ratio: 1.14

Sequence: GTGAAAAACC
- switch fluorescence ratio: 1.03

Sequence: TTGTACTCCT
- switch fluorescence ratio: 1.13

Sequence: CGAAACGACA
- switch fluorescence ratio: 1.03

Sequence: CAAGCCCCTT
- switch fluorescence ratio: 1.01

Sequence: CGATTATCAA
- switch fluorescence ratio: 0.993

Sequence: AACAAGGTAC
- switch fluorescence ratio: 1.09

Sequence: GCTCTTGGGA
- switch fluorescence ratio: 0.981

Sequence: TAAACGCTTT
- switch fluorescence ratio: 1.01

Sequence: GTTTAATCCT
- switch fluorescence ratio: 1.08

Sequence: GGCCGGACGA
- switch fluorescence ratio: 1.03

Sequence: GTTCTGCCGG
- switch fluorescence ratio: 1.02

Sequence: TTTTAATAGA
- switch fluorescence ratio: 0.992

Sequence: CGTGACCAGC
- switch fluorescence ratio: 1.03

Sequence: CGATAGGCGC
- switch fluorescence ratio: 1.04

Sequence: GCGAGTGGGT
- switch fluorescence ratio: 0.993

Sequence: GTGTAAATGT
- switch fluorescence ratio: 0.98

Sequence: ATGTTCGC
- switch fluorescence ratio: 1.03

Sequence: CTCTAAAGA
- switch fluorescence ratio: 1.07

Sequence: TTCTTGAACT
- switch fluorescence ratio: 1.06

Sequence: CTCGAGGTTA
- switch fluorescence ratio: 0.971

Sequence: GTTTTACGGT
- switch fluorescence ratio: 1.01

Sequence: TTGGGCAATG
- switch fluorescence ratio: 1

Sequence: CGGCTCGCTC
- switch fluorescence ratio: 1.06

Sequence: GTCCTAATTC
- switch fluorescence ratio: 1.03

Sequence: GCCCATCTCA
- switch fluorescence ratio: 0.994

Sequence: GCATGGCAGC
- switch fluorescence ratio: 0.985

Sequence: TGGAAACTGA
- switch fluorescence ratio: 0.992

Sequence: TATATGAAGG
- switch fluorescence ratio: 1.04

Sequence: CTACGGACTG
- switch fluorescence ratio: 1.42

Sequence: AAATATAACA
- switch fluorescence ratio: 0.998

Sequence: CTCGGGTCTG
- switch fluorescence ratio: 0.985

Sequence: GCGTAGCTGT
- switch fluorescence ratio: 1

Sequence: ACGCCCAGCT
- switch fluorescence ratio: 1.19

Sequence: TGTCTTTTGC
- switch fluorescence ratio: 0.985

Sequence: AAGAAAGAAA
- switch fluorescence ratio: 0.981

Sequence: TTTCGAGTAC
- switch fluorescence ratio: 1.02

Sequence: ACAACAGTCC
- switch fluorescence ratio: 1.04

Sequence: ACCGGAGTTG
- switch fluorescence ratio: 1.04

Sequence: CGGGCAGGAA
- switch fluorescence ratio: 1.01

Sequence: CAATTACGA
- switch fluorescence ratio: 1.11

Sequence: CGGTTCGCCG
- switch fluorescence ratio: 0.996

Sequence: TAAAGGCAGT
- switch fluorescence ratio: 0.969

Sequence: GGCCTAGCAC
- switch fluorescence ratio: 1.02

Sequence: CTCTACCGTA
- switch fluorescence ratio: 1.01

Sequence: ATAACAATAG
- switch fluorescence ratio: 1.06

Sequence: TTTGTATAC
- switch fluorescence ratio: 1.66

Sequence: AGTACATTAG
- switch fluorescence ratio: 1.04

Sequence: AATTAGCGCT
- switch fluorescence ratio: 1.01

Sequence: AAGGTTGCT
- switch fluorescence ratio: 1.03

Sequence: GCATCTGCAG
- switch fluorescence ratio: 1.03

Sequence: ATCGTACCT
- switch fluorescence ratio: 1.34

Sequence: AGACTGTTTG
- switch fluorescence ratio: 1.01

Sequence: CACTAGTGAA
- switch fluorescence ratio: 0.95

Sequence: GAGTAAGTGA
- switch fluorescence ratio: 1

Sequence: TATCGTGAGA
- switch fluorescence ratio: 0.996

Sequence: TATATAATGT
- switch fluorescence ratio: 1.01

Sequence: AGAGAATAAC
- switch fluorescence ratio: 1.01

Sequence: CTCGGAAAAG
- switch fluorescence ratio: 1

Sequence: GTTGTTCTGG
- switch fluorescence ratio: 0.965

Sequence: GAGCTCACGT
- switch fluorescence ratio: 1

Sequence: GCGTGTTAGC
- switch fluorescence ratio: 1.03

Sequence: CGCTCGAGGC
- switch fluorescence ratio: 1.06

Sequence: TAAACGGCCT
- switch fluorescence ratio: 1

Sequence: CGGGAAACAC
- switch fluorescence ratio: 1.32

Sequence: TATCCCCGA
- switch fluorescence ratio: 0.994

Sequence: GAGGACAGGA
- switch fluorescence ratio: 0.997

Sequence: TGTGGGTCTC
- switch fluorescence ratio: 0.994

Sequence: CTAGGATAGG
- switch fluorescence ratio: 0.98

Sequence: GGCTACACCC
- switch fluorescence ratio: 1.05

Sequence: TTTAATGGCA
- switch fluorescence ratio: 1.03

Sequence: AGAAAGTTGG
- switch fluorescence ratio: 1.01

Sequence: CCCGAAGTCC
- switch fluorescence ratio: 1.21

Sequence: CACCCTCCGG
- switch fluorescence ratio: 1.14

Sequence: TATTACGGCT
- switch fluorescence ratio: 1.15

Sequence: GGGCGGGTCG
- switch fluorescence ratio: 0.912

Sequence: TACAGGAATA
- switch fluorescence ratio: 1.05

Sequence: TTTACCTACC
- switch fluorescence ratio: 1.73

Sequence: TCAGGGTAT
- switch fluorescence ratio: 0.98

Sequence: AAATGATATG
- switch fluorescence ratio: 0.989
